Assay [1] concerns HSkMC (human skeletal muscle cells). In words: cytotoxicity call (relative viability < 0.9). The conditions noted are these: 10 µM.
Assay [2] deals with HepG2. In words: cytotoxicity call (relative viability < 0.9). Particulars: 10 µM.
For assay [3], the system named is S. aureus RN4220. In words: growth inhibition call (relative growth <= 0.2). The conditions noted are these: 50 µM.

The other results are listed elsewhere or left out.

As for `C[C@@H]1CN([C@H](C)CO)C(=O)c2cc(NC(=O)c3ccncc3)ccc2O[C@@H](C)CCCCO[C@@H]1CN(C)Cc1ccccc1`, the cytotoxicity call in assay [1] and in assay [2] was “inactive” in each case. The growth inhibition call in assay [3] is “inactive”.

As to `O=C1CCC23C=CC(=O)NCCCCNCCCNC(=O)C=Cc4ccc(c2c4)OC3C1` (stereo not drawn), the cytotoxicity call in assay [1] and in assay [2] was “inactive” throughout. The growth inhibition call in assay [3] is “inactive”.

For `C[C@H](CO)N1C[C@H](C)[C@@H](CN(C)Cc2ccc3c(c2)OCO3)Oc2ccc(NC(=O)C3CC3)cc2CC1=O`, the cytotoxicity call in assay [1] and in assay [2] was “inactive” in each case. Besides, the growth inhibition call in assay [3] is “inactive”.

As for `C[C@@H]1CCCCO[C@@H](CN(C)S(=O)(=O)c2cccs2)[C@H](C)CN([C@H](C)CO)C(=O)c2cc(NC(=O)Nc3ccc(F)cc3)ccc2O1`, the cytotoxicity call in assay [1] and in assay [2] was “inactive” in each case. Moreover, the growth inhibition call in assay [3] is “inactive”.

Consider `C[C@H]1CN([C@@H](C)CO)C(=O)Cc2cc(NC(=O)Nc3cccc4ccccc34)ccc2O[C@@H]1CN(C)C(=O)Nc1cccc2ccccc12`, for which the cytotoxicity call in assay [1] and in assay [2] was “inactive” in each case. The growth inhibition call in assay [3] was “inactive”.

`C[C@@H]1CN([C@H](C)CO)C(=O)c2cc(NC(=O)Nc3ccc(F)cc3)ccc2O[C@H]1CN(C)S(=O)(=O)c1cn(C)cn1`: the cytotoxicity call in assay [1] and in assay [2] was “inactive” each time. In addition, the growth inhibition call in assay [3] was “inactive”.

`CCCN(C)C[C@@H]1OCCCC[C@@H](C)Oc2ccc(NC(=O)Nc3ccc(OC)cc3)cc2C(=O)N([C@H](C)CO)C[C@@H]1C`: the cytotoxicity call in assay [1] and in assay [2] was “inactive” each time. Also, the growth inhibition call in assay [3] is “inactive”.

For `CO[C@@H]1CN(C)C(=O)c2ccc(NS(C)(=O)=O)cc2OC[C@H](C)N(C(=O)C2CCOCC2)C[C@@H]1C`, the cytotoxicity call in assay [1] and in assay [2] was “inactive” each time. In addition, the growth inhibition call in assay [3] was “inactive”.

As for `COC(=O)c1c2oc(c1C(=O)OC)C(=O)N[C@H](Cc1ccccc1)Cn1cc(nn1)[C@H](Cc1ccccc1)NC(=O)N[C@H](COC(=O)NCCCCCC(=O)NO)CC2`, the cytotoxicity call in assay [1] and in assay [2] was “inactive” in each case. Further, in assay [3], the growth inhibition call is “inactive”.

Consider `CC(C)(C)OC(=O)CC[C@]12N=C(c3ccc(OCCCO)cc3)O[C@H]1c1ccccc1CN(Cc1ccccc1)C2=O`, for which the cytotoxicity call in assay [1] and in assay [2] was “inactive” each time. Besides, in assay [3], the growth inhibition call is “inactive”.

In the case of `Cc1noc(C)c1NC(=O)Nc1cccc2c1O[C@@H](CN(C)S(C)(=O)=O)[C@@H](C)CN([C@@H](C)CO)C2=O`, the cytotoxicity call in assay [1] and in assay [2] was “inactive” throughout. For the same molecule, the growth inhibition call in assay [3] was “inactive”.

For `C[C@@H]1CCCCO[C@@H](CN(C)Cc2ccc(C(=O)O)cc2)[C@H](C)CN([C@@H](C)CO)C(=O)c2cc(NC(=O)Nc3ccc(F)cc3)ccc2O1`, the cytotoxicity call in assay [1] and in assay [2] was “inactive” in each case. For the same molecule, the growth inhibition call in assay [3] was “inactive”.

As to `O=C(C[C@@H]1CC[C@H]2[C@@H](COC[C@H](O)CN2S(=O)(=O)c2ccccc2F)O1)NCc1ccc(Cl)c(Cl)c1`, the cytotoxicity call in assay [1] and in assay [2] was “inactive” in each case. For the same molecule, in assay [3], the growth inhibition call is “inactive”.

On to `COc1ccc(NC(=O)Nc2ccc3c(c2)C(=O)N([C@@H](C)CO)C[C@H](C)[C@@H](CN(C)C(=O)Cc2ccccc2)OCCCC[C@@H](C)O3)cc1`, for which the cytotoxicity call in assay [1] and in assay [2] was “inactive” each time. Moreover, the growth inhibition call in assay [3] was “inactive”.

Take `C[C@H](CO)N1C[C@H](C)[C@@H](CN(C)Cc2ccc(C(=O)Nc3ccccc3N)cc2)Oc2ccc(NC(=O)CCC(F)(F)F)cc2C1=O`: the cytotoxicity call in assay [1] and in assay [2] was “inactive” in each case. Moreover, the growth inhibition call in assay [3] was “inactive”.

Turning to `C1CC2(CCN1)OCCS2`, the cytotoxicity call in assay [1] and in assay [2] was “inactive” each time. The growth inhibition call in assay [3] was “inactive”.

`Cc1ccc(S(=O)(=O)N(C)C[C@@H]2Oc3ccc(NS(=O)(=O)c4cn(C)cn4)cc3C(=O)N([C@H](C)CO)C[C@@H]2C)cc1`: the cytotoxicity call in assay [1] and in assay [2] was “inactive” in each case. In assay [3], the growth inhibition call was “inactive”.

In the case of `CCn1nc(C)c([C@@H](C)N)c1C`, the cytotoxicity call in assay [1] and in assay [2] was “inactive” throughout. Also, the growth inhibition call in assay [3] is “inactive”.

As to `C[C@@H]1CN([C@@H](C)CO)C(=O)c2cc(NC(=O)CCC(F)(F)F)ccc2O[C@@H](C)CCCCO[C@@H]1CN(C)Cc1ccc2c(c1)OCO2`, the cytotoxicity call in assay [1] and in assay [2] was “inactive” throughout. Besides, in assay [3], the growth inhibition call was “inactive”.

For the molecule `C[C@@H]1CCCCO[C@H](CN(C)C(=O)Nc2ccc3c(c2)OCO3)[C@@H](C)CN([C@H](C)CO)C(=O)c2cc(NC(=O)NC3CCCCC3)ccc2O1`, the cytotoxicity call in assay [1] and in assay [2] was “inactive” in each case. Further, in assay [3], the growth inhibition call is “inactive”.

Turning to `COc1ccc(S(=O)(=O)Nc2ccc3c(c2)C(=O)N([C@H](C)CO)C[C@H](C)[C@H](CN(C)C(=O)NC(C)C)O3)cc1`, the cytotoxicity call in assay [1] and in assay [2] was “inactive” each time. The growth inhibition call in assay [3] is “inactive”.

In the case of `COc1ccc(NC(=O)N(C)C[C@@H]2OCCCC[C@@H](C)Oc3ccc(NC(=O)NC(C)C)cc3C(=O)N([C@H](C)CO)C[C@@H]2C)cc1`, the cytotoxicity call in assay [1] and in assay [2] was “inactive” throughout. For the same molecule, the growth inhibition call in assay [3] is “inactive”.

Take `C[C@@H]1CN([C@@H](C)CO)C(=O)c2cc(NC(=O)Nc3ccc4c(c3)OCO4)ccc2O[C@H]1CN(C)Cc1ccc(-c2ccccc2)cc1`: in assay [1], the cytotoxicity call is “inactive”. For the same molecule, the cytotoxicity call in assay [2] was “active”. Further, in assay [3], the growth inhibition call was “inactive”.

Turning to `C[C@H]1CCCCO[C@@H](CN(C)CC2CCCCC2)[C@@H](C)CN([C@@H](C)CO)C(=O)c2cc(NC(=O)CCC(F)(F)F)ccc2O1`, the cytotoxicity call in assay [1] and in assay [2] was “inactive” each time. The growth inhibition call in assay [3] was “inactive”.

Consider `COc1ccc(S(=O)(=O)Nc2ccc3c(c2)C(=O)N([C@@H](C)CO)C[C@@H](C)[C@H](CN(C)Cc2ccc(C(=O)O)cc2)OCCCC[C@H](C)O3)cc1`, for which the cytotoxicity call in assay [1] and in assay [2] was “inactive” each time. The growth inhibition call in assay [3] is “inactive”.

As to `COc1ccccc1-c1ccc2c(c1)O[C@H](CN(C)CC1CCOCC1)[C@H](C)CN([C@H](C)CO)S2(=O)=O`, the cytotoxicity call in assay [1] and in assay [2] was “inactive” in each case. Moreover, in assay [3], the growth inhibition call was “inactive”.
